This is an account of results in article PMC12820563, “FoxP3 forms a head-to-head dimer in vivo and stabilizes its multimerization on adjacent microsatellites”.

This is one part of the list.

This test addresses T1, MBP-FoxP1dN (Mus musculus, UniProt P58462 326-579).
T1 sequence: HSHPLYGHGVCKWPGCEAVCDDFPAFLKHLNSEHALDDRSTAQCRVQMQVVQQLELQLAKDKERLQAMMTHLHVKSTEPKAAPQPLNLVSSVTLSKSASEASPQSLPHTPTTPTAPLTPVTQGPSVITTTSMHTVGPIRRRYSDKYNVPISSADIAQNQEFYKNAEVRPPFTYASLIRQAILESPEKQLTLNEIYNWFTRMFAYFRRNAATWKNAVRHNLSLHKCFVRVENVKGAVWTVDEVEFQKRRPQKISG
Kind of test: PD-seq (MBP pull-down with sequencing); 20 mM Tris-HCl pH 7.5, 100 mM NaCl, 1.5 mM MgCl2, 0.4 uM protein, 0.1 uM dsDNA library, 30 min, room temperature, amylose pull-down; high values mean tight binding. Particulars: protein: recombinant; tags: His6-MBP; chain copies: 2; dsDNA, one strand shown. In a few lines: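 E. coli-expressed mouse FoxP3 or FoxP1 fragment, N-terminus removed and tagged with His6-MBP, was used at 0.4 µM against 0.1 µM of a Klenow-filled degenerate double-stranded DNA library. After 30 min at room temperature in Tris pH 7.5 buffer with NaCl and MgCl2, complexes were pulled down on amylose resin and washed three times. Binding is pull-down over input reads-per-million enrichment from pooled replicates of the proteinase K-released, PCR-barcoded, Illumina-sequenced DNA.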
Regarding “GATGATTGTTCTCCCAGCTGATGAATTAGACAAATCGAGTAAACAAATTTTCCTAATCTTTCTGTTCAAGCGCCATCTAC”, the binding signal was 1.29 RPM ratio (pull-down/input).

With “GATGATTGTTCTCCCAGCTGATGAATTCTCTAGCTCGAGTAAACAAATTTTCCTAATCTTTCTGTTCAAGCGCCATCTAC”, the binding signal is 0.75 RPM ratio (pull-down/input).

As for “GATGATTGTTCTCCCAGCTGATGAATTGGCAACGTCGAGTAAACAAATTTTCCTAATCTTTCTGTTCAAGCGCCATCTAC”, the binding signal is 0.92 RPM ratio (pull-down/input).

With “GATGATTGTTCTCCCAGCTGATGAATTTGCGCTTTCGAGTAAACAAATTTTCCTAATCTTTCTGTTCAAGCGCCATCTAC”, the binding signal is 1.05 RPM ratio (pull-down/input).

“GATGATTGTTCTCCCAGCTGATGAATTGGCTTGCTCGAGTAAACAAATTTTCCTAATCTTTCTGTTCAAGCGCCATCTAC”: the binding signal is 0.868 RPM ratio (pull-down/input).

In the case of “GATGATTGTTCTCCCAGCTGATGAATTAAGGAAATCGAGTAAACAAATTTTCCTAATCTTTCTGTTCAAGCGCCATCTAC”, the binding signal was 1.04 RPM ratio (pull-down/input).

As for “GATGATTGTTCTCCCAGCTGATGAATTAACACGCTCGAGTAAACAAATTTTCCTAATCTTTCTGTTCAAGCGCCATCTAC”, the binding signal was 1.02 RPM ratio (pull-down/input).

As for “GATGATTGTTCTCCCAGCTGATGAATTTAGGCTGTCGAGTAAACAAATTTTCCTAATCTTTCTGTTCAAGCGCCATCTAC”, the binding signal is 0.946 RPM ratio (pull-down/input).

With “GATGATTGTTCTCCCAGCTGATGAATTTCCTCCATCGAGTAAACAAATTTTCCTAATCTTTCTGTTCAAGCGCCATCTAC”, the binding signal was 0.87 RPM ratio (pull-down/input).

Turning to “GATGATTGTTCTCCCAGCTGATGAATTCCTTCGATCGAGTAAACAAATTTTCCTAATCTTTCTGTTCAAGCGCCATCTAC”, the binding signal was 0.836 RPM ratio (pull-down/input).

For “GATGATTGTTCTCCCAGCTGATGAATTGAATCCCTCGAGTAAACAAATTTTCCTAATCTTTCTGTTCAAGCGCCATCTAC”, the binding signal was 0.801 RPM ratio (pull-down/input).

For the sequence “GATGATTGTTCTCCCAGCTGATGAATTCCATGATTCGAGTAAACAAATTTTCCTAATCTTTCTGTTCAAGCGCCATCTAC”, the binding signal was 0.874 RPM ratio (pull-down/input).

Regarding “GATGATTGTTCTCCCAGCTGATGAATTGGCCTAATCGAGTAAACAAATTTTCCTAATCTTTCTGTTCAAGCGCCATCTAC”, the binding signal is 0.974 RPM ratio (pull-down/input).

Regarding “GATGATTGTTCTCCCAGCTGATGAATTCAAATCCTCGAGTAAACAAATTTTCCTAATCTTTCTGTTCAAGCGCCATCTAC”, the binding signal was 0.895 RPM ratio (pull-down/input).

As for “GATGATTGTTCTCCCAGCTGATGAATTCTACAGATCGAGTAAACAAATTTTCCTAATCTTTCTGTTCAAGCGCCATCTAC”, the binding signal was 0.89 RPM ratio (pull-down/input).

For “GATGATTGTTCTCCCAGCTGATGAATTGCGGCATTCGAGTAAACAAATTTTCCTAATCTTTCTGTTCAAGCGCCATCTAC”, the binding signal was 1.33 RPM ratio (pull-down/input).

Regarding “GATGATTGTTCTCCCAGCTGATGAATTTCTTGTTTCGAGTAAACAAATTTTCCTAATCTTTCTGTTCAAGCGCCATCTAC”, the binding signal was 1.14 RPM ratio (pull-down/input).

Consider “GATGATTGTTCTCCCAGCTGATGAATTAGACGGATCGAGTAAACAAATTTTCCTAATCTTTCTGTTCAAGCGCCATCTAC”, for which the binding signal was 0.947 RPM ratio (pull-down/input).

Take “GATGATTGTTCTCCCAGCTGATGAATTTTATCATTCGAGTAAACAAATTTTCCTAATCTTTCTGTTCAAGCGCCATCTAC”: the binding signal is 1.2 RPM ratio (pull-down/input).

Regarding “GATGATTGTTCTCCCAGCTGATGAATTACTGTCCTCGAGTAAACAAATTTTCCTAATCTTTCTGTTCAAGCGCCATCTAC”, the binding signal is 0.938 RPM ratio (pull-down/input).

With “GATGATTGTTCTCCCAGCTGATGAATTTCCCGTGTCGAGTAAACAAATTTTCCTAATCTTTCTGTTCAAGCGCCATCTAC”, the binding signal is 0.829 RPM ratio (pull-down/input).

Consider “GATGATTGTTCTCCCAGCTGATGAATTCGCAAGGTCGAGTAAACAAATTTTCCTAATCTTTCTGTTCAAGCGCCATCTAC”, for which the binding signal was 0.82 RPM ratio (pull-down/input).

Consider “GATGATTGTTCTCCCAGCTGATGAATTTTATGCCTCGAGTAAACAAATTTTCCTAATCTTTCTGTTCAAGCGCCATCTAC”, for which the binding signal is 1.02 RPM ratio (pull-down/input).

For “GATGATTGTTCTCCCAGCTGATGAATTGATTTGATCGAGTAAACAAATTTTCCTAATCTTTCTGTTCAAGCGCCATCTAC”, the binding signal is 1.07 RPM ratio (pull-down/input).

“GATGATTGTTCTCCCAGCTGATGAATTCTTGTAGTCGAGTAAACAAATTTTCCTAATCTTTCTGTTCAAGCGCCATCTAC”: the binding signal is 1.2 RPM ratio (pull-down/input).

“GATGATTGTTCTCCCAGCTGATGAATTCGATGCTTCGAGTAAACAAATTTTCCTAATCTTTCTGTTCAAGCGCCATCTAC”: the binding signal is 0.974 RPM ratio (pull-down/input).

Turning to “GATGATTGTTCTCCCAGCTGATGAATTTCTATCTTCGAGTAAACAAATTTTCCTAATCTTTCTGTTCAAGCGCCATCTAC”, the binding signal is 0.883 RPM ratio (pull-down/input).

Regarding “GATGATTGTTCTCCCAGCTGATGAATTAAATTGTTCGAGTAAACAAATTTTCCTAATCTTTCTGTTCAAGCGCCATCTAC”, the binding signal is 1 RPM ratio (pull-down/input).

In the case of “GATGATTGTTCTCCCAGCTGATGAATTCAGTCGTTCGAGTAAACAAATTTTCCTAATCTTTCTGTTCAAGCGCCATCTAC”, the binding signal was 0.873 RPM ratio (pull-down/input).

As for “GATGATTGTTCTCCCAGCTGATGAATTAATGCCTTCGAGTAAACAAATTTTCCTAATCTTTCTGTTCAAGCGCCATCTAC”, the binding signal is 1.15 RPM ratio (pull-down/input).

For “GATGATTGTTCTCCCAGCTGATGAATTGTGTAATTCGAGTAAACAAATTTTCCTAATCTTTCTGTTCAAGCGCCATCTAC”, the binding signal is 1.32 RPM ratio (pull-down/input).

With “GATGATTGTTCTCCCAGCTGATGAATTTACGGTATCGAGTAAACAAATTTTCCTAATCTTTCTGTTCAAGCGCCATCTAC”, the binding signal is 1.19 RPM ratio (pull-down/input).

In the case of “GATGATTGTTCTCCCAGCTGATGAATTATGACGATCGAGTAAACAAATTTTCCTAATCTTTCTGTTCAAGCGCCATCTAC”, the binding signal was 0.937 RPM ratio (pull-down/input).

As for “GATGATTGTTCTCCCAGCTGATGAATTGCCCCCATCGAGTAAACAAATTTTCCTAATCTTTCTGTTCAAGCGCCATCTAC”, the binding signal is 0.972 RPM ratio (pull-down/input).

Regarding “GATGATTGTTCTCCCAGCTGATGAATTTGATTGATCGAGTAAACAAATTTTCCTAATCTTTCTGTTCAAGCGCCATCTAC”, the binding signal was 1.1 RPM ratio (pull-down/input).

Take “GATGATTGTTCTCCCAGCTGATGAATTCTCAACGTCGAGTAAACAAATTTTCCTAATCTTTCTGTTCAAGCGCCATCTAC”: the binding signal is 0.888 RPM ratio (pull-down/input).

“GATGATTGTTCTCCCAGCTGATGAATTGCCTAGGTCGAGTAAACAAATTTTCCTAATCTTTCTGTTCAAGCGCCATCTAC”: the binding signal was 0.859 RPM ratio (pull-down/input).

With “GATGATTGTTCTCCCAGCTGATGAATTTGACTCGTCGAGTAAACAAATTTTCCTAATCTTTCTGTTCAAGCGCCATCTAC”, the binding signal was 0.908 RPM ratio (pull-down/input).

As to “GATGATTGTTCTCCCAGCTGATGAATTAAATGACTCGAGTAAACAAATTTTCCTAATCTTTCTGTTCAAGCGCCATCTAC”, the binding signal is 0.967 RPM ratio (pull-down/input).

Turning to “GATGATTGTTCTCCCAGCTGATGAATTCGAACATTCGAGTAAACAAATTTTCCTAATCTTTCTGTTCAAGCGCCATCTAC”, the binding signal was 1 RPM ratio (pull-down/input).
